Consider 20 sequences from publication PMC5892938.

This is one part of the list. At the low end of the ranking the order means little.

This assay deals with GST-SBP-SLBP (stem-loop binding protein) (UniProt Q14493). The assay is described as follows: targeted RNA Bind-n-Seq.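 Note: DESeq read counts versus GST-SBP nonspecific binding control pulldown.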 As to conditions: RBNS binding buffer: 25 mM Tris pH 7.5, 150 mM KCl, 3 mM MgCl2, 0.1% Tween, 0.5 mg/mL BSA, 1 mM DTT; 27 nM protein, 750 pM RNA pool; temperature not stated; high values mean tight binding.
With “GGUCACGUCUCAAUCAACUCAUCUCCCAGGGAAAUCCCUGGCAAUUUCAACAGCUCGCAGUCAAG”, the binding signal (log2 fold change) was found to be 0.0538.

Consider “GGUCACGUCUCAAUCAACUCCAUGGAGGGGGGGAAAACCCCUUUACCCUCAUCAUCAACAGCUCGCAGUCAAG”, for which the binding signal (log2 fold change) was determined as 0.0796.

For the sequence “GGUCACGUCUCAAUCAACUCCUACGAGGGGGGGAAAACCCCUUUACCCUCUUCUUCAACAGCUCGCAGUCAAG”, the binding signal (log2 fold change) was -0.356.

Take “GGUCACGUCUCAAUCAACUCUUCCGCAGGAGUUUACUCCUGGUAUUUCAACAGCUCGCAGUCAAG”: the binding signal (log2 fold change) amounted to 0.0976.

On to “GGUCACGUCUCAAUCAACUCUAGUCCAGGAGUUUUCUCCUGUAUAUUCAACAGCUCGCAGUCAAG”, for which the binding signal (log2 fold change) was -0.143.

Turning to “GGUCACGUCUCAAUCAACUCUUUCCCCAGGGAAACCCCUGGCAAAUUCAACAGCUCGCAGUCAAG”, the binding signal (log2 fold change) was -0.126.

In the case of “GGUCACGUCUCAAUCAACUCAUCGUCAGGAGUUUUCUCCUGCAUACUCAACAGCUCGCAGUCAAG”, the binding signal (log2 fold change) stood at 0.146.

As for “GGUCACGUCUCAAUCAACUCUAUUUCAGGAGUUUCCUCCUGCUUUCUCAACAGCUCGCAGUCAAG”, the binding signal (log2 fold change) is -0.074.

In the case of “GGUCACGUCUCAAUCAACUCAAUCCCCAGGGAAACCCCUGGCUAACUCAACAGCUCGCAGUCAAG”, the binding signal (log2 fold change) stood at 0.0882.

On to “GGUCACGUCUCAAUCAACUCAUUUUCCAGGGAAAGCCCUGGUAUAUUCAACAGCUCGCAGUCAAG”, for which the binding signal (log2 fold change) came out at 0.053.

For the sequence “GGUCACGUCUCAAUCAACUCUUCUCCCAGGGAAAACCCUGGUAAUCUCAACAGCUCGCAGUCAAG”, the binding signal (log2 fold change) is -0.105.

Turning to “GGUCACGUCUCAAUCAACUCAUUUCCAGGAGUUUUCUCCUGUUUAUUCAACAGCUCGCAGUCAAG”, the binding signal (log2 fold change) worked out at 0.215.

As to “GGUCACGUCUCAAUCAACUCAUUUUCAGGAGUUUACUCCUGUAAUCUCAACAGCUCGCAGUCAAG”, the binding signal (log2 fold change) came to 0.238.

On to “GGUCACGUCUCAAUCAACUCUUCUUCAGGAGUUUUCUCCUGUUUUGUCAACAGCUCGCAGUCAAG”, for which the binding signal (log2 fold change) was found to be 0.1.

Take “GGUCACGUCUCAAUCAACUCAUCGUCCAGGGAAAACCCUGGUUUUUUCAACAGCUCGCAGUCAAG”: the binding signal (log2 fold change) was found to be 0.0579.

With “GGUCACGUCUCAAUCAACUCACUAGAGGGGGGGAAAACCCCUUUGCCCUCAUUAUCAACAGCUCGCAGUCAAG”, the binding signal (log2 fold change) is 0.0849.

“GGUCACGUCUCAAUCAACUCAAUCCCCAGGGAAAUCCCUGGCUUACUCAACAGCUCGCAGUCAAG”: the binding signal (log2 fold change) was found to be 0.371.

In the case of “GGUCACGUCUCAAUCAACUCAUUCUCCAGGGAAACCCCUGGUAUAUUCAACAGCUCGCAGUCAAG”, the binding signal (log2 fold change) was -0.194.

For “GGUCACGUCUCAAUCAACUCUUCAGAGGGGGGGAAAACCCCUUUACCCUCCACAUCAACAGCUCGCAGUCAAG”, the binding signal (log2 fold change) came to 0.116.

For the sequence “GGUCACGUCUCAAUCAACUCCUCAGAGGGGGGGAAAACCCCUUUACCCUCACCAUCAACAGCUCGCAGUCAAG”, the binding signal (log2 fold change) was -0.0838.
